# US10087478B2, “Compositions comprising a polypeptide having cellulolytic enhancing activity and a nitrogen-containing compound and uses thereof” (priority 2010, dated 2018)
# Where two headings read alike, the source gives them in different places.
# Target: Thermoascus aurantiacus GH61A polypeptide (Thermoascus aurantiacus, UniProt G3XAP7, N13Y)
# Format: biochemical
# [1] = pterin in DMSO, GH61A 2 mg per g cellulose, cellulose 29.5 mg per ml, 3 days
# [2] = pterin in DMSO, GH61A 2 mg per g cellulose, cellulose 29.5 mg per ml, 7 days
# [3] = Example 6, 5 mM compound, GH61A 0.4 mg/g cellulose, FIG. 2 grey bars
# [4] = Example 6, 5 mM compound, GH61A 0.4 mg/g cellulose, early and mid hydrolysis stages
smiles,measurement,setting,value
"Nc1ccccc1N [1,2-benzenediamine]",GH61 effect,"5 mM 1,2-benzenediamine, GH61A 0.4 mg/g cellulose, day 1",greater than 1
same,nitrogen-containing compound effect(+GH61),"5 mM compound, GH61A 0.4 mg/g cellulose, 1, 5 and 8 days (FIG. 1A)",less than 1
"C[C@H](O)[C@H](O)[C@H]1CNc2nc(N)[nH]c(=O)c2N1.Cl.Cl [(6R)-5,6,7,8-tetrahydrobiopterin dihydrochloride]",GH61 effect,[1],1.03±0.0414
same,nitrogen-containing compound effect(+GH61),[1],0.917±0.0564
same,GH61 effect,[2],1.07±0.0402
same,nitrogen-containing compound effect(+GH61),[2],0.969±0.0189
O=C1NC(=O)C(=NO)C(=O)N1 [violuric acid],nitrogen-containing compound effect(+GH61),[3],very slightly impacted
same,GH61 effect,[4],greater than 1
"CC1Nc2nc(N)[nH]c(=O)c2NC1C.Cl (stereo not drawn) [6,7-dimethyl-5,6,7,8-tetrahydropterine hydrochloride]",GH61 effect,[1],1.27±0.0160
same,nitrogen-containing compound effect(+GH61),[1],0.881±0.046
same,GH61 effect,[2],1.15
same,nitrogen-containing compound effect(+GH61),[2],0.785±0.0127
ON=Cc1ccccn1 [pyridine-2-aldoxime],nitrogen-containing compound effect(+GH61),[3],slightly decreased
same,GH61 effect,"Example 6, 5 mM compound, GH61A 0.4 mg/g cellulose, late hydrolysis (day 7)",greater than 1
CC(C)=NO [acetone oxime],nitrogen-containing compound effect(+GH61),[3],very slightly impacted
same,GH61 effect,[4],greater than 1
"CC1(C)CCCC(C)(C)N1[O] [TEMPO, 2,2,6,6-tetramethyl-1-piperidinyloxy]",nitrogen-containing compound effect(+GH61),[3],less than 1
same,GH61 effect,"Example 6, 5 mM compound, GH61A 0.4 mg/g cellulose, increased as the hydrolysis progressed",greater than 1
